B1: PhoQ; a variant is named by its letters at X, in order, P23837 (parent)
chain: MKKLLRLFFPLSLRVRFLLATAAVVLVLSLAYGMVALIGYSVSFDKTTFRLLRGESNLFYTLAKWENNKLHVELPENIDKQSPTMTLIYDENGQLLWAQRDVPWLMKMIQPDWLKSNGFHEIEADVNDTSLLLSGDHSIQQQLQEVREDDDDAEMTHSVAVNVYPATSRMPKLTIVVVDTIPVELKSSYMVWSWFIYVLSANLLLVIPLLWVAAWWSLRPIEALAKEVRELEEHNRELLNPATTRELTSLVRNLNRLLKSERERYDKYRTTLTDLTHSLKTPLXXLQXXLRSLRSEKMSVSDAEPVMLEQISRISQQIGYYLHRASMRGGTLLSRELHPVAPLLDNLTSALNKVYQRKGVNISLDISPEISFVGEQNDFVEVMGNVLDNACKYCLEFVEISARQTDEHLYIVVEDDGPGIPLSKREVIFDRGQRVDTLRPGQGVGLAVAREITEQYEGKIVAGESMLGGARMEVIFGRQHSAPKDE

The record followed here is a collection of fitness landscapes (doi:10.1126/science.1257360).

This is one part of the list.

The variants in the assay derive from B1. Kind of assay: enrichment ratio after two sorts for PhoP signalling (ratio (wild type AVST 3.29)); higher = more functional. To be noted: with PhoP (E. coli).
As to FGTV, the enrichment ratio is at most 0.25.
As for SDGM, the enrichment ratio was at most 0.25.
The figure for IIEN is at most 0.25; for FSAM it is 4.43; for SFVW it is at most 0.25.
Regarding KNHL, the enrichment ratio was at most 0.25.
With TTLH, the enrichment ratio came to 19.7.
GSKQ: the enrichment ratio was at most 0.25.
Take WKGR: the enrichment ratio was at most 0.25.
With GKKW, the enrichment ratio is at most 0.25.
DTVL: the enrichment ratio was at most 0.25.
MEDY: the enrichment ratio is at most 0.25.
With ESEF, the enrichment ratio was at most 0.25.
WEAT: the enrichment ratio was at most 0.25.
For PSNS, the enrichment ratio was at most 0.25.
For the variant SDTK, the enrichment ratio is at most 0.25.
LGIT: the enrichment ratio is at most 0.25.
In the case of SRAA, the enrichment ratio is at most 0.25.
For the variant WNYK, the enrichment ratio was at most 0.25.
Take AFRD: the enrichment ratio was at most 0.25.
The figure for EFSF is at most 0.25; for MFKF it is at most 0.25.
The figure for LGML is 6.19; for FIMW it is at most 0.25; for VLGF it is at most 0.25.
Under RRMS stands at most 0.25; under HTKV, at most 0.25; under AGHT, at most 0.25.
In the case of LVNL, the enrichment ratio is at most 0.25.
With MEVH, the enrichment ratio worked out at 1.05.
As for IYSF, the enrichment ratio was at most 0.25.
As for LEEG, the enrichment ratio was at most 0.25.
With SDND, the enrichment ratio was at most 0.25.
Take YFSY: the enrichment ratio was at most 0.25.
Consider VNIL, for which the enrichment ratio stood at 0.383.
Regarding KYDG, the enrichment ratio was at most 0.25.
On to WRPH, for which the enrichment ratio was at most 0.25.
For RRPF, the enrichment ratio was at most 0.25.
With AVLI, the enrichment ratio was determined as 1.4.
As to LPHP, the enrichment ratio was at most 0.25.
For the variant DHRF, the enrichment ratio was at most 0.25.
The figure for GDHW is at most 0.25; for YIDL it is at most 0.25.
PTGQ: the enrichment ratio is at most 0.25.
The figure for YEYY is at most 0.25; for TVCE it is 13.5.
Take KDTA: the enrichment ratio is at most 0.25.
As for GSHF, the enrichment ratio was at most 0.25.
On to ACFN, for which the enrichment ratio is at most 0.25.
On to NQYL, for which the enrichment ratio is at most 0.25.
Regarding DYAM, the enrichment ratio is at most 0.25.
Under QYPY stands at most 0.25; under RTTM, at most 0.25; under GETA, at most 0.25.
Regarding YRIT, the enrichment ratio was at most 0.25.
For YGCV, the enrichment ratio came out at 6.54.
For WKPK, the enrichment ratio was at most 0.25.
The figure for QRFQ is at most 0.25.
Turning to HYLC, the enrichment ratio was at most 0.25.
For ERGN, the enrichment ratio was at most 0.25.
Take FPRQ: the enrichment ratio was at most 0.25.
For the variant TNDS, the enrichment ratio is at most 0.25.
Regarding RHYD, the enrichment ratio was at most 0.25.
Under YGFL stands at most 0.25; under NLFQ, at most 0.25.
Under SSGC stands 13.8; under PTQN, at most 0.25.
Under TPFA stands at most 0.25.
In the case of EYLH, the enrichment ratio is at most 0.25.
Take IALV: the enrichment ratio turned out to be 13.1.
RYTE: the enrichment ratio turned out to be 0.475.
With VITV, the enrichment ratio is at most 0.25.
In the case of IMNH, the enrichment ratio was at most 0.25.
As for INNR, the enrichment ratio was at most 0.25.
The figure for MIEP is at most 0.25.
Consider VSDV, for which the enrichment ratio was at most 0.25.
The figure for GKRC is at most 0.25; for NQDR it is at most 0.25; for IQNY it is at most 0.25.
The figure for ILWG is at most 0.25; for GFTL it is at most 0.25; for SLYL it is at most 0.25.
The figure for PILK is at most 0.25; for YMKW it is at most 0.25.
As for MITT, the enrichment ratio is at most 0.25.
Consider VFTP, for which the enrichment ratio was at most 0.25.
With DEHH, the enrichment ratio is at most 0.25.
As to GDYE, the enrichment ratio is at most 0.25.
As for TLNN, the enrichment ratio was at most 0.25.
The figure for YQTP is at most 0.25; for WSLT it is at most 0.25; for YMSV it is at most 0.25.
Regarding KMNC, the enrichment ratio is at most 0.25.
YRHK: the enrichment ratio was at most 0.25.
As to RYPC, the enrichment ratio is at most 0.25.
The figure for HEDY is at most 0.25; for LDKI it is at most 0.25; for AGSG it is 3.24.
Regarding SQKG, the enrichment ratio was at most 0.25.
On to YLCE, for which the enrichment ratio was at most 0.25.
Consider TLDD, for which the enrichment ratio was at most 0.25.
The figure for MVPK is at most 0.25; for NYLI it is at most 0.25.
Consider DSYI, for which the enrichment ratio is at most 0.25.
Under KDHG stands at most 0.25; under PKQK, at most 0.25.
Regarding YAFM, the enrichment ratio was at most 0.25.
For the variant QVFV, the enrichment ratio was at most 0.25.
For QTRM, the enrichment ratio is at most 0.25.
Turning to GATM, the enrichment ratio came to 15.3.
In the case of HPVL, the enrichment ratio was at most 0.25.
Take IAME: the enrichment ratio was at most 0.25.
Consider GQND, for which the enrichment ratio is at most 0.25.
As to GLYS, the enrichment ratio was at most 0.25.
As for HRGA, the enrichment ratio was at most 0.25.
As for GNCH, the enrichment ratio came out at 3.45.
As to SCNQ, the enrichment ratio was at most 0.25.
Consider NTWY, for which the enrichment ratio is at most 0.25.
Consider RDPV, for which the enrichment ratio is at most 0.25.
Under YTSQ stands at most 0.25; under TSRA, at most 0.25.
Take APRE: the enrichment ratio is at most 0.25.
Consider WTLC, for which the enrichment ratio is at most 0.25.
As for QYGP, the enrichment ratio is at most 0.25.
Take KRCG: the enrichment ratio was at most 0.25.
On to TKIF, for which the enrichment ratio was determined as 3.09.
The figure for MCSF is 6.58; for KVHP it is at most 0.25; for YPPN it is at most 0.25.
As to QASL, the enrichment ratio turned out to be 9.99.
Regarding NRAC, the enrichment ratio was at most 0.25.
With LYMN, the enrichment ratio is at most 0.25.
Under GPQN stands at most 0.25; under MGFP, at most 0.25; under DVNA, at most 0.25.
For IYWR, the enrichment ratio was at most 0.25.
As to GKLQ, the enrichment ratio was 7.89.
For the variant IQLP, the enrichment ratio was at most 0.25.
As for PIAS, the enrichment ratio was at most 0.25.
As for QCSI, the enrichment ratio is at most 0.25.
With SNYE, the enrichment ratio was at most 0.25.
Under TFTF stands at most 0.25; under NSIL, at most 0.25.
VQVP: the enrichment ratio is at most 0.25.
As for MWCL, the enrichment ratio is at most 0.25.
Take YKNP: the enrichment ratio was at most 0.25.
Regarding DIPI, the enrichment ratio was at most 0.25.
On to GDYL, for which the enrichment ratio was at most 0.25.
Take QRGP: the enrichment ratio was at most 0.25.
For the variant FNFR, the enrichment ratio was at most 0.25.
Under RTKT stands at most 0.25.
Turning to PHEP, the enrichment ratio was at most 0.25.
On to EQFN, for which the enrichment ratio was at most 0.25.
